# Reference: PMC10668032
# The list shows a part of the results. At the low end of the ranking, values are background and their order means little.
# Target: SIX1-Q177R homeodomain (UniProt Q15475)
# Assay: universal protein binding microarray
# Settings: Universal all-10-mer PBM (8x60K, AMADID 030236), 300 nM GST-tagged protein, Alexa Fluor 488 anti-GST; buffer, salt, pH and temperature not stated; high values mean tight binding; most listed sequences are background and not binding sites; double strand, one strand shown
row,Sequence,binding signal [E-score]
1,AGTATGGA,-0.121
2,CACGCCGC,0.13
3,AGGTAACG,0.099
4,GGGAAACC,-0.0305
5,CTAAATGA,-0.0401
6,AGTAAGCA,-0.16
7,CCACGACG,-0.0808
8,AGACATTG,-0.21
9,ATGGTCAC,-0.195
10,ATGCTTTA,0.0368
11,CGTGATCA,-0.0942
12,GACCAAGC,-0.114
13,GTAAACGA,0.014
14,AATCCACC,0.0411
15,ATTATTCC,0.000165
16,AAGATCCA,-0.123
17,AGACCATA,-0.213
18,ATCGCGTG,0.183
19,GAATACGC,0.0445
20,CGGTCTAG,-0.0991
21,CATTATCG,-0.0607
22,CCTTAAGA,-0.134
23,ACGCTACA,0.161
24,CTAGAGGA,-0.118
25,AAGTTCAG,-0.114

row,Sequence,binding signal [E-score]
1,AGCTTGCG,-0.205
2,TAATTAAA,-0.0974
3,GAACTAAC,-0.178
4,CACAGGAG,0.168
5,GCAGGCTA,-0.0279
6,CTACGTCC,-0.00151
7,CCCATGGG,0.149
8,CGTACTAA,0.0529
9,TGAGGACA,0.0712
10,AGCTTCAC,-0.2
11,CATAAGTC,-0.391
12,CGGTACAG,0.1
13,CATCGCAC,-0.0711
14,GTCGCAAA,0.0292
15,GACGCAAC,-0.0242
16,GAATTTCC,-0.292
17,ACGTCCCC,0.0834
18,CGCCAATC,-0.134
19,ACTTTTAG,-0.0932
20,GACAGGCC,-0.113
21,AATGACAC,0.464
22,GCCCCGAA,-0.0782
23,ACGAGTAC,0.105
24,GGAACAAA,-0.121
25,AGCACGTC,-0.0483

row,Sequence,binding signal [E-score]
1,CACTCAGA,0.135
2,AGCTTCCA,-0.333
3,ACGTAGTA,-0.00472
4,TACGCGCA,0.102
5,GAACATAC,-0.0661
6,AGGATCCT,0.171
7,CATTTTAC,0.0106
8,GACCGGAA,-0.0546
9,CCCATAAG,0.0661
10,CTGCCAAC,-0.00445
11,CCACCGGA,0.203
12,ACACGACA,0.404
13,GGTTCTTA,-0.0396
14,GATCCTGC,0.0647
15,ATGAGTTG,-0.187
16,TCTACAAA,-0.168
17,ACGCTGAC,-0.0388
18,ACCTCGCC,0.131
19,TGATTACA,-0.0749
20,CTATGCCC,-0.0692
21,GCTCGGCC,-0.217
22,AATGCCCT,-0.232
23,TATTTCGA,-0.0987
24,GAGCTCAC,-0.155
25,CGAGCAGA,-0.159

row,Sequence,binding signal [E-score]
1,CGCGCGCA,-0.00187
2,GGCTCCAC,0.0334
3,CCAGATAG,-0.13
4,ACGCACTG,0.0161
5,AATTTGCA,-0.0182
6,AGGGCCGA,-0.168
7,AAACAACA,0.166
8,GGCTAGCC,0.079
9,CCGATGAA,-0.0526
10,CGCAAAAA,-0.0293
11,CGTAGCTC,-0.0122
12,AGCTAGCT,-0.106
13,AGTCTATC,-0.0489
14,TAGGCAAA,-0.253
15,CAGCTTTA,-0.212
16,CACAGAGG,-0.014
17,GGCAATTA,-0.106
18,ATTAAGCA,-0.167
19,CATTGACA,0.045
20,AAATTGGT,-0.052
21,GCTCACCC,-0.0316
22,AACTGTCG,-0.038
23,CGCCTTTA,-0.0635
24,TGTTCCAA,-0.0255
25,CGTAAAGA,-0.116

row,Sequence,binding signal [E-score]
1,CATGAAGA,-0.0214
2,CTACGGCA,-0.182
3,GACCGCTA,-0.159
4,ACGTTCAG,-0.0188
5,AAGCCCCA,-0.0567
6,TACGAGCA,0.141
7,ACGTGCTG,-0.0225
8,AAAGACTT,-0.343
9,GGCATGCA,-0.102
10,CGTAATCC,0.123
11,CCCGGTAA,0.0711
12,ATTGCAAT,-0.337
13,ACTGGGAG,0.223
14,AAAAGGTA,-0.0105
15,ATTATCCG,0.122
16,AAAAAGAA,-0.0124
17,GTGCGCTA,0.0648
18,ACTAACTC,-0.039
19,ATTAGAAA,-0.00517
20,GACAGGAC,-0.24
21,CCTGGGCC,-0.00605
22,GATCAGAC,-0.183
23,CAAAAACC,-0.00872
24,CGCGAAAG,-0.059
25,CAGATGGA,-0.0102

row,Sequence,binding signal [E-score]
1,CGGGTTAA,0.145
2,GCAAATAA,-0.183
3,ATACCCCG,0.304
4,GGGCCCCA,-0.2
5,CGGCTTGC,-0.0796
6,AGGTGGCG,0.0222
7,AGGGCTCG,-0.0814
8,CCAGGCCG,0.0107
9,CTACACGA,0.388
10,ATAGAATA,-0.0994
11,ATCCCTGA,0.0972
12,CAATGACC,0.104
13,ATAAACCC,0.16
14,AGATTTCC,-0.23
15,AAGCGCAT,-0.0898
16,ATCGGGTA,0.146
17,GAATAGCA,0.0258
18,AATCTCAG,-0.146
19,GCCCGTGA,-0.0769
20,AACAGCTG,-0.367
21,AAAACTGT,-0.268
22,TAGAGGCA,-0.139
23,CGAGTTAA,0.0324
24,GACACCTC,0.483
25,CGCACATC,-0.246

row,Sequence,binding signal [E-score]
1,ACGGCGGC,-0.0774
2,CTAACTGC,-0.309
3,CTAGGAAC,-0.195
4,ACCGGGTA,0.212
5,CACCTCCA,0.293
6,GCCGGACA,0.0328
7,AAAATGGC,-0.264
8,GGGCACCC,0.0795
9,ATCTTCGA,-0.0712
10,AGAATGCA,-0.136
11,CGGTACCG,-0.0924
12,AGAGGGAA,-0.31
13,ACGCATCC,-0.0157
14,GAGTTAGC,-0.0351
15,AAATCGGT,0.028
16,CCGAGGTA,0.0286
17,CATTTCCC,-0.101
18,AGCTTCTG,-0.273
19,ATTAACTG,-0.0563
20,AACCTACC,0.0817
21,AGGTAGAG,0.0812
22,TAGACTCA,-0.0767
23,GTAAGTCA,-0.0629
24,CTCACATC,-0.158
25,ATTGGGCA,-0.156

row,Sequence,binding signal [E-score]
1,CCCCAAAC,0.197
2,GCTAGTTA,-0.0567
3,ACGAGTCA,0.0862
4,ATTGAAGG,-0.0607
5,CCTAGTAG,0.0174
6,AGCCAGAA,-0.151
7,CATTTCGC,-0.282
8,GCGGTGCC,0.11
9,AACCATAG,-0.178
10,CTTATTCC,-0.17
11,CTAAGGTA,-0.0464
12,AAGGCATA,-0.175
13,AATGAGCA,-0.101
14,CGGGACAC,0.42
15,AAGAACAC,0.423
16,ATGTCTAA,-0.24
17,GATCCGTA,0.0371
18,ACAGATCG,-0.132
19,AGGTCCAC,-0.182
20,GGAAGCAC,0.109
21,CATCCTCA,-0.0451
22,ATCTCTTC,-0.109
23,ACCGGCGT,0.133
24,ACGGCACC,0.146
25,TCCTCGCA,-0.116

row,Sequence,binding signal [E-score]
1,CACCCCCC,0.341
2,GATGGGAC,-0.259
3,CATCTAAG,-0.171
4,CTTAGACA,0.145
5,GTGGATAA,0.0203
6,CGCTCAGA,-0.11
7,AGGCTTGC,-0.205
8,AGAGTCAG,0.125
9,GTCATAGA,-0.127
10,ACCTAGAC,-0.0286
11,CCCGATGA,0.16
12,ATATACAT,-0.1
13,CTTGCGCC,-0.054
14,AAGACTGC,-0.261
15,AGTGAATC,0.0443
16,AGATGACA,0.165
17,ACTATTGC,-0.00475
18,TGACAAAA,-0.229
19,CTGCAACC,-0.00598
